{
  "source": "the supplement of paper PMC11417369",
  "note": "± gives the standard deviation of the averaged measurements. Some of the results follow.",
  "data": [
    {"tested_on": "PfAP2-I AP2 domain 3 (GST-tagged)", "assay": "gcPBM binding intensity (ln(normalized median fluorescence intensity)); higher = stronger DNA binding", "procedure,_shortened": "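Binding intensity is the highest Masliner-normalised natural-log median intensity over replicate spots in either probe orientation. To obtain it, GST-tagged P. falciparum DNA-binding domains made in E. coli were incubated for 1 h on an Agilent 4 × 180k array of primer-extended double-stranded 36-bp intergenic genomic probes plus negative controls. Detection used Alexa488 anti-GST antibody with scanning at 488 nm.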", "values": [
      {"sequence": "TATTTATGCACGCGTGCACACACATATGAAAAAAGG [CACACA_site9090]", "gcPBM binding intensity (ln)": "11.1 ± 0.59"},
      {"sequence": "AATTGCTAATGGTACGAACACACATATAAAGATGCA [CACACA_site8634]", "gcPBM binding intensity (ln)": "7.74 ± 0.66"},
      {"sequence": "AAGAATGTTAACGTTGCACACAAAAAAAAAGTATAC [CACACA_site8763]", "gcPBM binding intensity (ln)": "8.22 ± 0.73"},
      {"sequence": "ATATAAGTTATTTTATACAAAAAAAAAAAAAAAAAT [CACACA_negctrl_site1190]", "gcPBM binding intensity (ln)": "7.62 ± 0.44"},
      {"sequence": "AAAAAAAAAAAAAATACACACACATATATATATATA [CACACA_site8698]", "gcPBM binding intensity (ln)": "9.4 ± 0.23"},
      {"sequence": "CTTTCATATGTTTTAACACACACGCATATATTATAG [CACACA_site7033]", "gcPBM binding intensity (ln)": "8.28 ± 0.43"},
      {"sequence": "ACCTTATAAAAAAAAAGTACATATATAAATAATAAA [XGTACX_site4338]", "gcPBM binding intensity (ln)": "8.29 ± 0.13"},
      {"sequence": "TCAAATAATTTGTTGACACACACACCCACATACATA [CACACA_site8717]", "gcPBM binding intensity (ln)": "8.205 ± 0.064"},
      {"sequence": "ATATTTTTTACTATTACACACAAGGGATTATTATTT [CACACA_site3915]", "gcPBM binding intensity (ln)": "7.99 ± 0.69"},
      {"sequence": "TATACATAATATATATGTACATATATTCTTTATTTT [XGTACX_site4565]", "gcPBM binding intensity (ln)": "7.76 ± 0.28"},
      {"sequence": "AAACAATAAAAGATTACACACATATATAGCATATAT [CACACA_site1698]", "gcPBM binding intensity (ln)": "7.76 ± 0.61"},
      {"sequence": "ATATCAAATTCTGAAACACACAAAATTACACCTCTA [CACACA_site169]", "gcPBM binding intensity (ln)": "7.72 ± 0.55"},
      {"sequence": "TTTTCGATATGCTTTTTTTTTCTACTGTCTTTTTAA [TGCATGCA_negctrl_site54]", "gcPBM binding intensity (ln)": "7.55 ± 0.64"},
      {"sequence": "TTACTTAATAGACACACACACAAAAAAAAAAAAAAA [CACACA_site6572]", "gcPBM binding intensity (ln)": "8.12 ± 0.49"},
      {"sequence": "CACATACATAAATACACACACAAAATAATAAAATAA [CACACA_site5304]", "gcPBM binding intensity (ln)": "7.9 ± 0.27"},
      {"sequence": "CAAAAATATTATTATAGTACATAAATAATATATTTT [XGTACX_site6902]", "gcPBM binding intensity (ln)": "7.41 ± 0.31"},
      {"sequence": "TAAAAATAGGAGTGTGTGCACATAAATTATATACTA [GTGCAC_site9405]", "gcPBM binding intensity (ln)": "10.1 ± 0.39"},
      {"sequence": "TATATATATATTTTTTGTACATATTATATAATATAC [XGTACX_site5187]", "gcPBM binding intensity (ln)": "9.025 ± 0.064"},
      {"sequence": "AAAAAAAAAAAAAAAAAAAAACACCCAAAAAAATAT [XGTACX_negctrl_site210]", "gcPBM binding intensity (ln)": "9.74 ± 0.071"},
      {"sequence": "GAAAGACAAATTGTGACACACACAAAAAAAAAAAAA [CACACA_site9241]", "gcPBM binding intensity (ln)": "7.99 ± 0.71"},
      {"sequence": "TTTTCATTTTTCTTTACACACATATATATATATATA [CACACA_site2236]", "gcPBM binding intensity (ln)": "9.52 ± 0.18"},
      {"sequence": "TAAAAAAAAACAGAAACACACATTATTCATATAGAT [CACACA_site7052]", "gcPBM binding intensity (ln)": "7.5 ± 0.56"},
      {"sequence": "AAAAGCACCGTTCGTTGTACACTGAAACACTTTTGT [XGTACX_site199]", "gcPBM binding intensity (ln)": "8.2 ± 0.76"},
      {"sequence": "GTTATAAATTTTTTTTTTTTTTTTTTTTTTTTTTTT [CACACA_negctrl_site848]", "gcPBM binding intensity (ln)": "9.9 ± 0.13"},
      {"sequence": "AACAAATTGAAACAATAATTGGAAAAAAAAAAAAAA [CACACA_negctrl_site1145]", "gcPBM binding intensity (ln)": "8 ± 0.76"},
      {"sequence": "AACAAATACGGACACACACACACACTAGAAAAAAAA [CACACA_site4442]", "gcPBM binding intensity (ln)": "8.4 ± 0.11"},
      {"sequence": "ATAAAATAAAAGGAATGTACTTTTTTTATTGTAATT [XGTACX_site4372]", "gcPBM binding intensity (ln)": "7.76 ± 0.4"},
      {"sequence": "ATTTTTTTCCACTAGTGTACAAATTTTACATTGTGT [XGTACX_site5023]", "gcPBM binding intensity (ln)": "8.52 ± 0.47"},
      {"sequence": "ACTAATGTAAAAGTTTGTACATATATTGAGAATTAT [XGTACX_site7439]", "gcPBM binding intensity (ln)": "7.69 ± 0.52"},
      {"sequence": "AAGAAAAAAACAAAAAAAAAAAAAAAAATTCTTATT [TGCATGCA_negctrl_site504]", "gcPBM binding intensity (ln)": "7.07 ± 0.47"},
      {"sequence": "CTATAATATTAGTGCACACACAAAAATGTACTAAAC [CACACA_site6442]", "gcPBM binding intensity (ln)": "11.6 ± 0.62"},
      {"sequence": "TCGCAAATAAATTAATGTACACATATATATATATAT [XGTACX_site5145]", "gcPBM binding intensity (ln)": "9.39 ± 0.56"},
      {"sequence": "TTTTCAATTTTTTATGAACACACAAAAAAAAAAAAA [CACACA_site8808]", "gcPBM binding intensity (ln)": "8.11 ± 0.61"},
      {"sequence": "TATTGATAATTTTATATATACATACATAAATAAATA [CACACA_negctrl_site1687]", "gcPBM binding intensity (ln)": "7.28 ± 0.44"},
      {"sequence": "ATAAACTGAGTGGTTACACACAAAACCAATAATTTT [CACACA_site3478]", "gcPBM binding intensity (ln)": "7.61 ± 0.64"},
      {"sequence": "AAATGTATATATGTATGTACATATATATATATATAT [XGTACX_site5778]", "gcPBM binding intensity (ln)": "9.3 ± 0.71"},
      {"sequence": "AGTTTCTATTTAGTGTGTACTTAAGAAAAATATCTC [XGTACX_site82]", "gcPBM binding intensity (ln)": "7.88 ± 0.4"},
      {"sequence": "ATATATATATATATATGTACTCATATTTTATTATTT [XGTACX_site898]", "gcPBM binding intensity (ln)": "9.28 ± 0.35"},
      {"sequence": "TAAAGCGACATTTGGAAAATATATATCCTAGCATTT [CACACA_negctrl_site327]", "gcPBM binding intensity (ln)": "7.35 ± 0.78"},
      {"sequence": "AAAATACACAGACACACACACATATAAATAAATATT [CACACA_site7871]", "gcPBM binding intensity (ln)": "7.93 ± 0.4"},
      {"sequence": "ATTCGTTATAAAATATGTACATAAATATATATATAT [XGTACX_site2819]", "gcPBM binding intensity (ln)": "9.095 ± 0.035"},
      {"sequence": "TATTCGTGCAATAGTAGTACACTTAAAAATTATTCA [XGTACX_site269]", "gcPBM binding intensity (ln)": "10.5 ± 0.42"},
      {"sequence": "ACATAGATGCATATCACACATAATAATATTGTCGTA [CACACA_site4819]", "gcPBM binding intensity (ln)": "7.68 ± 0.67"},
      {"sequence": "TTATAAAATAAACTTACACACATGAAATATTATATT [CACACA_site1945]", "gcPBM binding intensity (ln)": "7.39 ± 0.48"}
    ]}
  ]
}
